Laboratory results from PMC4336329 (PLoS ONE, 2015).
The campaign covered roughly 310,000 compounds. About 14,000 (4.5%) showed an effect of 50% or more. The effect is printed as a negative number. The list shows a part of the results.

Biological target: human ether-à-go-go-related gene (hERG) potassium channel (human, UniProt Q12809)
Test: primary screen, population patch clamp on CHO cells stably expressing hERG
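Note: peak tail current of the secondary pulse compared with the same well before compound.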

Chain of human ether-à-go-go-related gene (hERG) potassium channel (Q12809 whole entry, looked up): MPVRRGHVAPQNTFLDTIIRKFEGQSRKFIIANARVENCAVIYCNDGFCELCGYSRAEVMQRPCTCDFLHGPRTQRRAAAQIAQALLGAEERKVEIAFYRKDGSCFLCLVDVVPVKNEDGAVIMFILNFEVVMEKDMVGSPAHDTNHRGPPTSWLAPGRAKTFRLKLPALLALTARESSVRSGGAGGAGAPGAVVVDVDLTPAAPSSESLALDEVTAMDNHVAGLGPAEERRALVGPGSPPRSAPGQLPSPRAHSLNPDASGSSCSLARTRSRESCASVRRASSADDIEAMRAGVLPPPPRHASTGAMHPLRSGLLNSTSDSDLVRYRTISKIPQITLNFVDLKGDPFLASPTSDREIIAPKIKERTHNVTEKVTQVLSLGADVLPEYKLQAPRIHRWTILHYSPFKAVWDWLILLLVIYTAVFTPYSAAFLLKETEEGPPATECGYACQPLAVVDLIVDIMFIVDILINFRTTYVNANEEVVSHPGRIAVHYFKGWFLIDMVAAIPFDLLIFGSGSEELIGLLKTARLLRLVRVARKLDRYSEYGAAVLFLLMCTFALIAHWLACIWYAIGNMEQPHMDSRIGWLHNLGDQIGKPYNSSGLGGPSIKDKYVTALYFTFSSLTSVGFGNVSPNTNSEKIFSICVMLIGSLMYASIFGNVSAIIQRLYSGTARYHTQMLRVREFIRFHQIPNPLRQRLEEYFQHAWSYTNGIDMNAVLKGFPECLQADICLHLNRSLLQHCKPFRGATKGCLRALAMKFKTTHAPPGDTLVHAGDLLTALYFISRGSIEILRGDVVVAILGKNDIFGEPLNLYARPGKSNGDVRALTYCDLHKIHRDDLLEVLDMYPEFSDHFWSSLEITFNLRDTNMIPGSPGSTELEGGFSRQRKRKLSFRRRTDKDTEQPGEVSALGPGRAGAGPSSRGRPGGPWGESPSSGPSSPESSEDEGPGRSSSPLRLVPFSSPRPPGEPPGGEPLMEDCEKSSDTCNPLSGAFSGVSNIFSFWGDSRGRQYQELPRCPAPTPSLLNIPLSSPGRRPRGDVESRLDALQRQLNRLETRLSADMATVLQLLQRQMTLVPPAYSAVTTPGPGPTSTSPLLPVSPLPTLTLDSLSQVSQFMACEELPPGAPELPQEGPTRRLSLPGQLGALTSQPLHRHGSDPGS

First: COc1ccc(OCC(=O)Nc2ccccc2C(=O)N2CCOCC2)cc1
Second: O=C(Nc1cc(N2CCOCC2)ncn1)Nc1cccc2ccccc12
The “hERG current change (%, negative = inhibition) at 10uM” value of the first is higher: 10.1% for the first, -5.41% for the second.

Compared with Cc1ccc(S(=O)(=O)Nc2nnc(C3CCCCC3)s2)cc1, Cc1ccc(S(=O)(=O)Nc2cc(C)on2)cc1 is higher in “hERG current change (%, negative = inhibition) at 10uM” value: 6.36% for the first, 15.4% for the second.

Going from CC(=O)c1ccc(-n2nnnc2SCC(=O)NC2CCCCC2)cc1 to C=CCn1nnnc1SCC(=O)Nc1cccc(OC)c1, the “hERG current change (%, negative = inhibition) at 10uM” value rises from -17% to -10.3%.

Going from N#Cc1c(-c2ccc(C(F)(F)F)cc2)cc(-c2ccccc2)[nH]c1=S to O=C(C(O)c1ccccc1)N1N=C(c2ccccc2)CC1(O)C(F)(F)F (stereo not drawn), the “hERG current change (%, negative = inhibition) at 10uM” value rises from -2.91% to 23.6%.

Going from O=C(N/N=C\c1ccc[nH]1)c1cncc(Br)c1 to COc1ccc2c(c1)c(C(=O)N/N=C/c1cn(C)c3ccccc13)c(C)n2C, the “hERG current change (%, negative = inhibition) at 10uM” value falls from 3.82% to 2.17%.

First: COc1cc(NC(=O)COC(=O)c2nc3nc(C)cc(C)n3n2)cc(OC)c1
Second: COc1cc(C(=O)OCC(=O)Nc2cc(C)on2)c([N+](=O)[O-])cc1OC
The “hERG current change (%, negative = inhibition) at 10uM” value of the first is lower: -19.1% for the first, 2.51% for the second.

Compared with S=C(NCC1CCCO1)N1CCN(c2ccccc2)CC1 (stereo not drawn), O=C(C1=C(O)C(=O)N(CC2CCCO2)C1c1ccccc1)c1ccco1 (stereo not drawn) is lower in “hERG current change (%, negative = inhibition) at 10uM” value: 23.5% for the first, 14.1% for the second.

Going from CC(C)COc1ccc(C(=O)Nc2ccc(N3CCOCC3)cc2N2CCOCC2)cc1 to CCOc1cccc(/C=N/NC(=S)Nc2cc(S(=O)(=O)N3CCOCC3)ccc2N2CCOCC2)c1O, the “hERG current change (%, negative = inhibition) at 10uM” value rises from 1.07% to 9.91%.

First: O=C(Cn1nnc2ccccc2c1=O)Nc1cccc(S(=O)(=O)N2CCOCC2)c1
Second: CC(Sc1nc2ccccc2c(=O)n1CC1CCCO1)C(=O)N(C)c1ccccc1 (stereo not drawn)
The “hERG current change (%, negative = inhibition) at 10uM” value of the first is higher: -16.8% for the first, -41.6% for the second.

Compared with O=C(Nc1ccc(Cl)cc1C(=O)Nc1ccc(Br)cn1)c1ccco1, COc1ccc(NC(=O)CCC(=O)Nc2cc(OC)c(NC(=O)c3ccco3)cc2OC)c(OC)c1 is higher in “hERG current change (%, negative = inhibition) at 10uM” value: -12.5% for the first, 20.4% for the second.

First: CN=Cc1c(NC)nc2c(C)cccn2c1=O
Second: O=C(O)c1c(Cl)nc2ccccn12
The “hERG current change (%, negative = inhibition) at 10uM” value of the first is lower: -15.1% for the first, 39.7% for the second.

Going from Cc1ccc(C23CC4CC(CC(C(=O)OCC(=O)N(C)C)(C4)C2)C3)cc1 to O=C(COC(=O)C12CC3CC(CC(O)(C3)C1)C2)NCCc1ccc(Cl)cc1, the “hERG current change (%, negative = inhibition) at 10uM” value falls from 10.8% to -10.8%.

First: c1cncc(-c2nn3cnnc3s2)c1
Second: O=[N+]([O-])c1cc(/C=N/n2c(-c3cccnc3)n[nH]c2=S)ccc1Cl
The “hERG current change (%, negative = inhibition) at 10uM” value of the first is higher: 9.93% for the first, 5.27% for the second.

Compared with CC(=O)Nc1nnc(S(N)(=O)=O)s1, CC(=O)Nc1ccc2nc(N)sc2c1 is higher in “hERG current change (%, negative = inhibition) at 10uM” value: 15% for the first, 15.8% for the second.

Going from Cc1occc1C(=O)NCc1ccccc1F to O=C(CCCNC(=O)c1ccc(Cl)cc1)NCc1ccccc1F, the “hERG current change (%, negative = inhibition) at 10uM” value falls from -8% to -11.6%.

Compared with Cc1ccc(C)c(CSC2=NCCN2C(=O)c2cccs2)c1, Cc1ccc(CNC(=O)C(C)OC(=O)c2cccs2)cc1 (stereo not drawn) is higher in “hERG current change (%, negative = inhibition) at 10uM” value: 13.5% for the first, 17.5% for the second.

First: Cc1ccc(Oc2ccccc2)c(NC=O)c1
Second: Cc1nn(C)c(Oc2ccccc2)c1[N+](=O)[O-]
The “hERG current change (%, negative = inhibition) at 10uM” value of the first is higher: 2.01% for the first, -3.58% for the second.

First: Cc1c(N(C)C(=O)c2ccco2)c(=O)n(-c2ccccc2)n1C
Second: O=C(NCCc1ccccc1)c1nc2ncccn2n1
The “hERG current change (%, negative = inhibition) at 10uM” value of the first is higher: 0.317% for the first, -3.81% for the second.

First: Cc1noc(/C=C/c2ccco2)c1S(=O)(=O)N1CCC(C(=O)N2CCc3ccccc32)CC1
Second: CCc1ccc(S(=O)(=O)N2CCCC(N3CCN(c4ccc(OC)cc4)CC3)C2)cc1 (stereo not drawn)
The “hERG current change (%, negative = inhibition) at 10uM” value of the first is higher: 8.13% for the first, -65.4% for the second.

First: N#Cc1ccc(NC(=O)COC(=O)CCNS(=O)(=O)c2ccccc2)cc1
Second: CC(=O)Nc1ccc(NC(=O)COC(=O)Cc2cccs2)cc1
The “hERG current change (%, negative = inhibition) at 10uM” value of the first is lower: -34.4% for the first, 12.4% for the second.

Going from O=C(Nc1ccccc1)C1C(c2ccccc2)C1(Cl)Cl (stereo not drawn) to CC(C)OP(=O)(c1ccccc1)c1ccccc1, the “hERG current change (%, negative = inhibition) at 10uM” value falls from 0.699% to -3.71%.

Compared with CCc1ccc(Nc2n[n+](-c3ccccc3)c(-c3ccc(N(CC)CC)cc3)s2)cc1.[Cl-], Cc1ccc(NS(=O)(=O)c2ccc(OCC(=O)NCc3ccncc3)cc2)cc1 is higher in “hERG current change (%, negative = inhibition) at 10uM” value: -36% for the first, -19.5% for the second.

Compared with O=C(NC1CCOc2ccccc21)c1ccc(=O)[nH]c1 (stereo not drawn), Cc1ccc(CNCC(O)c2ccccc2)s1.Cl (stereo not drawn) is lower in “hERG current change (%, negative = inhibition) at 10uM” value: 25.1% for the first, 13% for the second.

First: Cc1ccc(N2C(=O)c3cccc(Oc4ccc(Cl)cc4)c3C2=O)c(C)c1
Second: O=C(Nc1cccc(S(=O)(=O)Nc2ccc(Cl)cc2)c1)c1ccc2c(c1)OCCO2
The “hERG current change (%, negative = inhibition) at 10uM” value of the first is higher: -2.97% for the first, -12.2% for the second.

Going from COc1cccc(C2CCCN2Cc2nc(CCC(C)C)no2)c1 (stereo not drawn) to CC(C)CNS(=O)(=O)c1ccc(OCC(=O)NCC2CCCO2)c(Cl)c1 (stereo not drawn), the “hERG current change (%, negative = inhibition) at 10uM” value rises from -9.89% to -4.3%.

Going from COc1cc(OC)cc(C(=O)N[C@H](C(=O)OCC(=O)NC(C)c2ccccc2)C(C)C)c1 (stereo partly drawn) to COc1cc(OC)cc(C(=O)N[C@H](C(=O)OCC(=O)c2ccc(F)cc2)C(C)C)c1, the “hERG current change (%, negative = inhibition) at 10uM” value rises from -9.56% to 2.64%.

First: CN(C)CCNC(=O)c1csc(Nc2cccc3ccccc23)n1
Second: COc1ccc(/C=C(\NC(=O)c2ccc(OC)c(OC)c2)C(=O)NCCc2c[nH]c3ccccc23)cc1
The “hERG current change (%, negative = inhibition) at 10uM” value of the first is lower: -55.4% for the first, -41.6% for the second.

Going from CC(=O)c1cc(C#N)c(NCc2ccccc2)nc1C to N#CCOC(=O)c1c2c(nc3ccccc13)CCC2, the “hERG current change (%, negative = inhibition) at 10uM” value falls from 0.123% to -23.1%.

Going from NC1=NC(=O)/C(=C\c2cc([N+](=O)[O-])ccc2Cl)S1 to O=C1S/C(=C\c2ccc(O)c([N+](=O)[O-])c2)C(=O)N1Cc1cccc([N+](=O)[O-])c1, the “hERG current change (%, negative = inhibition) at 10uM” value rises from -6.99% to 20.1%.

First: Cc1ccc(C(=O)NC(=S)NNS(=O)(=O)c2ccc(C)cc2)cc1
Second: Cc1ccc(S(=O)(=O)N(C)Cc2nc(-c3ccccn3)no2)cc1
The “hERG current change (%, negative = inhibition) at 10uM” value of the first is lower: 3.32% for the first, 6.95% for the second.

Compared with CCN1CCN(CCNC(=O)CS(=O)(=O)Cc2nc(-c3ccc(C)cc3)oc2C)CC1, COc1ccc(N2CCN(c3ccc4nnc(CCC(=O)Nc5ccc(C)cc5)n4n3)CC2)cc1 is lower in “hERG current change (%, negative = inhibition) at 10uM” value: 2.08% for the first, -70.1% for the second.

Going from COc1ccc(CCNC(=O)c2cc(=O)n(C)c(=O)n2C)cc1OC to COc1ccc(C2NC(=O)CS2)cc1OC (stereo not drawn), the “hERG current change (%, negative = inhibition) at 10uM” value falls from -0.242% to -3.94%.

Going from O=C(CC(Cc1ccccc1)C(=O)O)Nc1cccc(C(F)(F)F)c1 (stereo not drawn) to O=C1N(Cc2ccccc2)c2ccc(Cl)cc2C12OCCO2, the “hERG current change (%, negative = inhibition) at 10uM” value falls from 24% to 17.4%.

Going from Cc1cc2cc(CNC(=S)Nc3ccc(OC(F)F)cc3)ccc2n1C to COCCCNC(=O)CC(NS(=O)(=O)c1ccc(OC)cc1)c1ccc(OC)cc1 (stereo not drawn), the “hERG current change (%, negative = inhibition) at 10uM” value rises from 15.3% to 22.3%.

Compared with CCc1cc(-c2nc(N)ncc2-c2csc(C)n2)c(O)cc1OC, CCOc1ncccc1C(=O)Nc1nc(SC)ns1 is higher in “hERG current change (%, negative = inhibition) at 10uM” value: -7.42% for the first, 8.51% for the second.

Going from Cc1cccc(N=C2NC(=O)CS2)c1 to CC(C)(C)C(=O)Nc1cccc(S(=O)(=O)NC2=NCCC2)c1, the “hERG current change (%, negative = inhibition) at 10uM” value falls from 15.6% to 12.5%.

Compared with COc1cccc(-c2nnc(SCC(=O)Nc3ccc4c(c3)OCCO4)n2Cc2ccco2)c1, COc1cccc(NC(=O)CCc2nnc3ccc(N4CCN(c5cccc(OC)c5)CC4)nn23)c1 is higher in “hERG current change (%, negative = inhibition) at 10uM” value: -15.1% for the first, 13.6% for the second.

First: OCCCn1c(-c2ccccc2)nc(=S)c2c1CCCC2
Second: c1coc(CNc2nc3sc4c(c3c3ncnn23)CCCC4)c1
The “hERG current change (%, negative = inhibition) at 10uM” value of the first is lower: 0.555% for the first, 14.1% for the second.

Going from CCN(CC)C(=O)CSc1n[nH]c(=O)n1CCc1ccccc1 to Cn1c(Cc2csc(N)n2)nnc1SC/C=C/c1ccccc1, the “hERG current change (%, negative = inhibition) at 10uM” value falls from 14.1% to -10.7%.

First: CCN(CC)CCCn1c(C)cc2c(c1=O)C(c1ccc(OC)c(OC)c1OC)C(C#N)=C(N)O2 (stereo not drawn)
Second: CCc1cc(=O)oc2c(C)c(OCC(=O)N3CC[C@@]4(O)CCCC[C@H]4C3)ccc12
The “hERG current change (%, negative = inhibition) at 10uM” value of the first is higher: 19% for the first, -14.6% for the second.

Going from CC(C)Cc1nnc(NC(=O)CSc2ccccn2)s1 to Nn1nnc2ccccc21, the “hERG current change (%, negative = inhibition) at 10uM” value rises from -7.06% to -0.689%.

First: CCOC(=O)C1CCN(C(=O)c2sc3ncnc(N4CCC(C)CC4)c3c2C)CC1
Second: O=C1CSC(c2ccc(Cl)cc2)N1Nc1nc(N2CCOCC2)nc(N2CCOCC2)n1 (stereo not drawn)
The “hERG current change (%, negative = inhibition) at 10uM” value of the first is lower: -73.2% for the first, -24.8% for the second.

First: CC(C)C(=O)Nc1cc2c3c(c1)CCC(=O)N3CCC2
Second: COc1cc2cc(CN(C(=O)Nc3ccccc3)C3CCCC3)c(=O)[nH]c2cc1OC
The “hERG current change (%, negative = inhibition) at 10uM” value of the first is higher: 9.46% for the first, -44.2% for the second.

Compared with O=C(O)c1ccc(C(=O)c2ccc3c(c2)C(=O)N(CCO)C3=O)cc1, CC(C)NC(=O)NNC(=O)c1nn(-c2ccc(F)cc2)ccc1=O is lower in “hERG current change (%, negative = inhibition) at 10uM” value: 19.2% for the first, -3.54% for the second.

Compared with COc1ccc(/C=N/Nc2nccnc2Cl)c(OC)c1, Oc1ccccc1/C=N/NC(=S)NC1CC2CCC1C2 (stereo not drawn) is higher in “hERG current change (%, negative = inhibition) at 10uM” value: -0.629% for the first, 17.7% for the second.
